Laboratory results as given in the supplement of paper PMC12217912.
The other results are listed elsewhere or left out. Sequences were assembled here from the parent chain. Inactive controls read about 0.05.

B1: TEV protease; numbered along this chain (parent)
chain: MGESLFKGPRDYNPISSSICHLTNESDGHTTSLYGIGFGPFIITNKHLFRRNNGTLVVQSLHGVFKVKDTTTLQQHLVDGRDMIIIRMPKDFPPFPQKLKFREPQREERICLVTTNFQTKSMSSMVSDTSCTFPSGDGIFWKHWIQTKDGQCGSPLVSTRDGFIVGIHSASNFTNTNNYFTSVPKNFMELLTNQEAQQWVSGWRLNADSVLWGGHKVFMVKPEEPFQPVKEATQL

Variants of: B1
Experiment: raw area under fraction-flipped curve 0-4 h after induction (AUC4h, not background-subtracted), DNA-recorder readout of cleavage of the substrate (dimensionless); higher = more cleavage of the substrate by the protease variant
Conditions: temperature: 34 °C; time window: 0-4 h after rhamnose induction
Description: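 In vivo DNA recorder in E. coli TOP10(DE3) ΔrhaA at 34 °C. Each TEVp single-site mutant (parent TEVp 0) is paired with a single-site variant of the 7-mer TEVs (canonical ENLYFQ|S). The substrate sits between flexible linkers in a Bxb1-sfGFP-TEVs-SsrA fusion, so cleavage stabilises Bxb1 and speeds flipping of a recombination array, read by NGS. The value is the raw area under the fraction-flipped curve over 0-4 h after rhamnose induction (AUC4h), with ≥20 reads per time point. It is not background-subtracted; inactive controls average about 0.047.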
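Note: Bxb1 expression induced with 0.2% (w/v) L-rhamnose at OD600 near 0.5, cultures sampled hourly, flipped fraction per protease–substrate barcode pair counted by paired-end Illumina sequencing.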

Row | Variant | area with substrate ENAYFQS | area with substrate ENCYFQS | area with substrate ENDYFQS | area with substrate ENEYFQS | area with substrate ENFYFQS | area with substrate ENGYFQS | area with substrate ENHYFQS | area with substrate ENKYFQS | area with substrate ENMYFQS | area with substrate ENNYFQS | area with substrate ENPYFQS | area with substrate ENQYFQS | area with substrate ENRYFQS | area with substrate ENSYFQS | area with substrate ENTYFQS | area with substrate ENVYFQS | area with substrate ENYYFQS | area with substrate ENIYFQS | area with substrate ENWYFQS
1 | V78W | 0.0606 | 0.0653 | 0.0651 | 0.062 | 0.0478 | 0.0573 | 0.0484 | 0.0602 | 0.0547 | 0.0449 | 0.0619 | 0.0571 | 0.0611 | 0.0799 | 0.0528 | 0.0501 | 0.0625 | – | –
2 | V78Y | 0.0565 | – | – | 0.0688 | 0.0557 | – | – | 0.0537 | 0.0565 | 0.056 | – | 0.0561 | – | 0.0628 | 0.0552 | – | 0.0351 | 0.0639 | –
3 | V78P | 0.0505 | 0.0463 | 0.0614 | 0.0524 | 0.0591 | 0.0769 | 0.0602 | 0.0569 | 0.0609 | 0.0594 | – | 0.063 | 0.0505 | 0.0576 | 0.0654 | 0.0652 | 0.0716 | – | 0.054
4 | F65G | 0.0427 | – | 0.0698 | 0.0589 | 0.0589 | 0.0527 | 0.0596 | 0.0302 | 0.0922 | – | – | 0.0666 | 0.0425 | 0.119 | – | – | – | 0.0913 | 0.0451
5 | P89N | 0.0476 | 0.0533 | 0.059 | 0.0783 | – | 0.0521 | 0.0387 | 0.0501 | 0.0697 | – | 0.0615 | 0.0672 | 0.0594 | 0.0619 | 0.0662 | 0.0582 | 0.0593 | 0.1 | –
6 | K98A | 0.0527 | 0.0691 | 0.0582 | 0.0711 | – | 0.0561 | – | 0.102 | – | 0.0566 | 0.0714 | 0.0594 | – | 0.0629 | – | 0.0631 | – | 0.125 | –
7 | K98L | 0.067 | 0.0639 | 0.0876 | 0.0592 | 0.0596 | 0.0653 | – | – | 0.0877 | 0.0664 | 0.0627 | 0.0659 | 0.0609 | 0.0664 | 0.0677 | 0.0609 | 0.0711 | – | –
8 | K98C | 0.0687 | 0.0686 | 0.0669 | 0.0624 | – | 0.0661 | 0.0625 | 0.0639 | 0.0842 | 0.0648 | 0.064 | 0.0583 | 0.0621 | 0.0666 | 0.0998 | 0.0782 | 0.0597 | 0.0937 | 0.0606
9 | N52P | 0.0635 | 0.0547 | 0.0666 | 0.0743 | – | 0.0595 | 0.0449 | – | – | 0.0449 | 0.06 | – | 0.0619 | 0.0619 | – | 0.0572 | 0.0493 | – | –
10 | N52C | 0.0948 | 0.0608 | 0.0639 | 0.0549 | 0.0674 | 0.0612 | 0.0674 | 0.0569 | 0.0662 | – | 0.0762 | 0.0618 | 0.0658 | 0.0637 | 0.0567 | 0.0502 | – | 0.054 | 0.0036
11 | N52V | 0.0543 | 0.0421 | 0.0609 | 0.0572 | 0.0544 | – | 0.0624 | 0.0556 | 0.0736 | – | 0.0586 | 0.0573 | 0.0574 | 0.0593 | – | 0.0589 | 0.059 | 0.073 | –
12 | M83D | 0.0628 | 0.0506 | 0.0532 | 0.058 | 0.0696 | 0.0576 | 0.0483 | 0.0539 | – | 0.05 | 0.0583 | 0.0784 | 0.046 | 0.0463 | 0.0327 | 0.055 | – | – | –
13 | K66L | 0.0621 | – | 0.0526 | 0.0573 | 0.061 | 0.057 | 0.067 | 0.0585 | 0.0799 | 0.069 | 0.0639 | 0.0608 | 0.0582 | 0.064 | 0.0675 | 0.0971 | – | 0.0905 | 0.0678
14 | D82K | 0.0573 | 0.0474 | 0.0531 | 0.0464 | 0.0423 | 0.0586 | 0.0609 | – | 0.0569 | 0.0627 | – | – | 0.0599 | 0.0467 | 0.0481 | – | 0.067 | 0.0663 | –
15 | L61W | 0.0609 | 0.149 | 0.0658 | – | 0.0615 | 0.0657 | 0.0574 | – | 0.0876 | – | 0.028 | 0.0401 | 0.0472 | 0.0669 | – | – | – | 0.0975 | –
16 | L61H | 0.0616 | 0.0713 | 0.0526 | 0.0603 | 0.0577 | – | 0.0622 | 0.069 | – | 0.0679 | 0.0541 | 0.0615 | – | 0.0654 | 0.0602 | 0.0704 | 0.058 | – | –
17 | L99D | 0.0461 | – | – | 0.0546 | 0.0658 | – | 0.0569 | 0.0514 | 0.0656 | 0.0554 | 0.0663 | 0.0574 | – | – | – | 0.0746 | 0.0482 | 0.0502 | –
18 | F92C | 0.063 | 0.0609 | – | 0.0651 | 0.0651 | 0.0622 | 0.0319 | 0.0581 | 0.0883 | 0.0736 | 0.0795 | 0.0622 | 0.0639 | 0.0566 | 0.0693 | 0.0796 | – | 0.101 | –
19 | R81C | 0.0491 | 0.0661 | 0.0611 | 0.0722 | 0.0558 | 0.0567 | 0.0467 | 0.0515 | 0.0709 | – | 0.0676 | 0.0572 | 0.0559 | 0.0629 | 0.0685 | 0.053 | 0.0442 | 0.0797 | –
20 | Q75R | 0.0599 | 0.0565 | 0.0516 | 0.0232 | 0.055 | 0.0686 | 0.0588 | 0.046 | 0.051 | 0.0536 | – | 0.057 | 0.0511 | 0.0562 | 0.0824 | 0.0717 | 0.0645 | 0.0455 | 0.0183
21 | Q75K | 0.0613 | – | 0.0565 | 0.0583 | 0.0498 | 0.0747 | – | – | 0.0614 | 0.0415 | 0.0655 | 0.0574 | – | 0.063 | – | 0.0565 | 0.0592 | 0.138 | –
22 | Q75F | 0.059 | 0.0647 | 0.0666 | 0.0622 | 0.0691 | – | 0.0428 | – | – | 0.0616 | 0.0643 | 0.0573 | 0.0534 | 0.0545 | 0.0638 | 0.0678 | – | 0.0967 | –
23 | T70E | 0.0504 | 0.0465 | 0.0596 | 0.0434 | 0.0743 | – | – | 0.0724 | 0.069 | – | – | 0.0503 | 0.0585 | 0.0562 | 0.0509 | – | – | 0.0654 | –
24 | T70I | 0.0541 | – | 0.0606 | 0.0578 | 0.0615 | 0.0545 | 0.0395 | 0.064 | 0.0802 | – | – | 0.0644 | – | 0.0524 | 0.0539 | 0.0591 | – | – | 0.0529
